# Measurements from the supplement of paper PMC3334620.
# The full ranking holds about 33,000 sequences; the median of “E-score (-0.5 to 0.5)” is about -0.012, and the highest 2% start at about 0.29. Some of the results follow.
# Target: T1, Ybr033w (UniProt P38073)
# T1 sequence: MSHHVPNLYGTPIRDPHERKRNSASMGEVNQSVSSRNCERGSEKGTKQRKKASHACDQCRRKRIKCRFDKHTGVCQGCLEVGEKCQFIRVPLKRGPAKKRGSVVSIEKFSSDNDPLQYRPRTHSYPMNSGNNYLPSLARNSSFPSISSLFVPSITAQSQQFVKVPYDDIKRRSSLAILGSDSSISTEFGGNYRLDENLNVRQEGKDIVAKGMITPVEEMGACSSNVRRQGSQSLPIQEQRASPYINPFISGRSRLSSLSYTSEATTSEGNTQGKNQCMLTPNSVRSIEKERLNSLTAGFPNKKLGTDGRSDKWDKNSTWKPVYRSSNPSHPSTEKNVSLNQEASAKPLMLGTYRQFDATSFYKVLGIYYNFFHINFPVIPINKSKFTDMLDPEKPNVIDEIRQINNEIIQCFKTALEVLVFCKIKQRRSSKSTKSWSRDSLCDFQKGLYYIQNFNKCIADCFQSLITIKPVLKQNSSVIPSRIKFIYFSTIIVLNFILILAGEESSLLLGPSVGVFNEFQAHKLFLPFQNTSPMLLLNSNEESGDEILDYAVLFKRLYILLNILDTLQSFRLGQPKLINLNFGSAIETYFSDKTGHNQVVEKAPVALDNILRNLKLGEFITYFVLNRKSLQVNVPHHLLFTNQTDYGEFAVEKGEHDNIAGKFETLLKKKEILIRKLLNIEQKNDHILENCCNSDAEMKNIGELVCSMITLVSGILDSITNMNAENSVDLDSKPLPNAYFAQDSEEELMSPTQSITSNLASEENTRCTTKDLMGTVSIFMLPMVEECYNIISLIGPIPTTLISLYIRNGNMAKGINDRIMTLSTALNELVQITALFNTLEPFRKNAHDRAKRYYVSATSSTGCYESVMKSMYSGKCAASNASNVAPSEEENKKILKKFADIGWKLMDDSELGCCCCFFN
# Assay: PBM E-score (8-mer binding enrichment) (E-score (-0.5 to 0.5)); higher = stronger / more preferred TF binding; most listed sequences are background and not binding sites
# Settings: protein concentration: 200 nM; construct: GST-full length
# Outline: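 Masliner-normalised scans of fluorescent anti-GST signal were the basis for scoring. That signal came from GST-tagged yeast transcription factors applied at about 100-200 nM to double-stranded universal all-10-mer Agilent arrays on fresh or once-stripped slides. Each ungapped eight-base word, pooled with its reverse complement, received an E-score from the Universal PBM Analysis Suite.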
row,Sequence,PBM E-score
1,GCCGTAAC,-0.16
2,CAAGCCAC,-0.364
3,AGACCCTA,-0.107
4,ATTCAGCG,0.16
5,AAATACGC,0.087
6,AAGTCTTC,-0.0941
7,GACCCACA,0.143
8,ACAATTCG,0.0965
9,AGATGTTC,0.174
10,CGGCACAA,-0.277
11,AAATCCGC,-0.0825
12,CCGCCCGA,-0.0976
13,ATACGAAA,0.217
14,AACAATAC,0.157
15,CAGGTATC,-0.0388
16,ATTACAAA,0.318
17,TCACCACA,0.168
18,CATTTTTC,0.264
19,AATGCGCA,0.155
20,AGTTACGG,-0.081
21,CTTCGCAC,-0.0907
22,TGGAACAA,0.434

row,Sequence,PBM E-score
1,GTCTCATA,-0.00322
2,CAGACAGC,-0.212
3,ACAAGAGC,-0.121
4,GTGCGTAA,-0.0581
5,AATTCCTG,0.0756
6,ATGTATTG,0.266
7,ACGCCGCA,0.0755
8,TCCCTCCA,-0.201
9,CATAGAAG,0.0446
10,CAGCGGTA,0.0201
11,AGCCTAGA,-0.202
12,CGTAGGGC,-0.226
13,AATTGACA,0.0278
14,AAAAGCGC,0.00073
15,GAAATGGC,-0.11
16,CGAGAGCC,-0.276
17,AACTAACC,0.21
18,ATTGTCAA,-0.0167
19,ACCTAAGT,0.0693
20,ACGGGACT,-0.183
21,GATAAATC,0.304
22,CAGTTACC,-0.142

row,Sequence,PBM E-score
1,CATTCCTA,0.00714
2,ACTCCTTA,0.0278
3,GCCCACAA,-0.114
4,ACGGCACC,-0.298
5,TCGAATCA,0.104
6,AAGTATAA,0.152
7,TCATTCCA,0.125
8,GTGCCGCA,-0.121
9,CAATGGCG,-0.103
10,TCGAGGCA,0.0137
11,AGCTCGAA,-0.13
12,CAGCCGGA,0.0889
13,AATACTGC,0.0732
14,AGGAGTGA,0.00659
15,ATTAATTA,0.387
16,AAACTACC,0.166
17,CGTTTCGA,0.0283
18,ACGTGGCC,-0.316
19,CAACCCGA,0.0663
20,ACATGGCA,-0.0807
21,ACATTGTG,0.00957
22,AAACACGG,-0.167

row,Sequence,PBM E-score
1,ACGCGAAG,-0.101
2,AGAGGGGG,-0.394
3,GACTCCCC,-0.253
4,AACCCCAC,-0.343
5,GCGGCGTA,-0.0605
6,AACCCCAT,-0.0871
7,CAAGCACG,-0.0015
8,AACCTTGT,-0.194
9,CAGGGGTA,-0.309
10,CGCTAGCG,-0.309
11,CGGCCCAG,-0.242
12,CCTCGACG,-0.151
13,ACCACTAG,0.00592
14,ACCGTCAT,-0.0338
15,TCTTCCCA,-0.144
16,AAGAATGA,0.103
17,GCGACAGC,-0.16
18,AAGATGCT,0.103
19,ACTCCAGC,-0.148
20,CCAATCCA,-0.159
